Test results from the supplement of paper PMC3334620.
Over roughly 33,000 sequences, “E-score (-0.5 to 0.5)” has its median near -0.054; the highest 2% begin near 0.39. The list shows a part of the results.

These sequences were tested against Ylr278c (UniProt Q05854) (assay: PBM E-score (8-mer binding enrichment) (E-score (-0.5 to 0.5)); higher = stronger / more preferred TF binding; most listed sequences are background and not binding sites). Conditions: protein concentration: 200 nM; construct: GST-DNA-binding domain.
Experimental: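 Universal 'all 10-mer' protein binding microarrays (Agilent AMADID 015681) probed with GST-tagged S. cerevisiae TFs (full-length or DBD) made by in vitro transcription/translation (PURExpress), about 100-200 nM. Bound TF was detected with fluorescent anti-GST. Each ungapped 8-mer (which stands for itself and its reverse complement) is scored by the PBM enrichment score (E-score), a modified Wilcoxon-Mann-Whitney statistic from -0.5 to +0.5, computed with the Universal PBM Analysis Suite. Scale: above 0.35 generally sequence-specific binding.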

Sequence	PBM E-score
CGTAGGGA	-0.178
CAATGAAA	-0.235
ACCATTCC	0.146
ACGGACAG	0.043
AGCAAGGG	-0.0657
GAGCCGGA	0.407
AAAGAACG	0.0048
CTTTGTAA	-0.0847
AACGTACC	-0.117
CCCTGTCG	-0.0722
AGCCTAAA	-0.138
ATCAGGTA	-0.101
AAGTGGAC	-0.113
ATAGTGAG	-0.229
CACATGCA	-0.182
ACATGCGC	0.0214
AAGGGGAC	-0.105
TGCTATAA	-0.134
AATAAATT	0.04
CACCATGG	-0.32
GTAATCTA	-0.052
ACGCGCTC	-0.0144
ATCTACAA	-0.172
AAAAGATC	-0.0655
TGAAGTAA	-0.132

Sequence	PBM E-score
ACTTAACC	-0.0501
GAGCTCCC	0.00449
ATCAGGAG	-0.02
AGCGCCAC	-0.108
AGCTTCAC	-0.216
CTTATTCC	0.249
CGGCGACC	0.306
TACCTGGA	-0.116
ATACAGAC	-0.0717
ATAGAGAC	-0.248
GTAGATCA	0.0365
GAGATAAC	0.0356
GTAAGTAA	-0.0435
CGAGTAGC	0.0771
GTAGGCTA	-0.151
ATACAACA	-0.152
ACAAACGG	0.203
AGAGCTCC	0.193
ACTCACTA	-0.144
ATCGGCAG	0.213
CTGTGAAC	-0.198
CTTTAGCC	0.15
GGCCCCTA	-0.0509
ATAGTGGA	-0.04
CATCGTGA	-0.119

Sequence	PBM E-score
CGTTCGTC	0.0351
GACAACGA	0.00479
ATCAATAC	-0.232
GAGATGCC	0.0775
CCCTTATC	-0.0989
TAGGTCGA	-0.114
AAGGACGC	-0.0694
ATGAAAAA	0.0858
AGTTTCAG	0.0252
ACCGGTCT	0.146
ACGGCTAC	0.0549
CAGTTAAG	-0.119
CCGGACCC	0.391
AAGCGCGT	-0.064
AAGAGTAG	0.0448
ACATTCGC	0.0596
ACCAACGT	-0.215
CGTGAAGC	-0.0642
TGAGGAAA	-0.0933
AAGTGGGT	0.00453
ATAGGGAA	-0.0367
GGCACTCA	-0.315
ATGGCTCG	-0.116
CAGCATGC	-0.042
CGACAAGA	0.0177

Sequence	PBM E-score
CTCACTCA	-0.0527
TGCGCGCA	0.204
ATCCTTCC	-0.124
AGAACTAC	-0.0654
CACCGCTG	-0.0372
GAAGCCAA	0.0199
CGCAAAGA	-0.0298
ATTAATGC	0.107
GAATGCAC	0.0728
ACCCGCTC	-0.0324
ATGGATCG	0.166
GCTGCTCA	-0.347
CACAAGAG	-0.0341
CTCGACGC	0.0704
TAAGATTA	-0.125
CCAGATGG	-0.0985
CCATCTAC	-0.0779
CTGTACAC	-0.176
ACGTTCAC	-0.102
ACTATAGC	-0.0594
CGGAAATC	0.41
CATAGAGA	-0.198
CCGGACAG	0.357
ACCACCGC	0.0504
CAATTACA	0.0794

Sequence	PBM E-score
AATGGCAA	-0.195
AGACGCTA	-0.146
CCCGCCTC	0.147
CCCGGAAG	0.39
AGGTCACG	-0.111
GGTAGGAC	-0.00594
ATATTAGC	-0.0489
ATAGCGGC	0.147
CCTAGCAC	-0.112
AATGACAC	-0.186
CGGTCATA	0.159
AAGCACGT	-0.209
TAGCAAGA	-0.23
GCTACTAC	0.126
ATTTGGAC	0.0193
GCAATCAA	-0.015
CCGCGACA	0.113
ATTACCCC	0.229
TACAATGA	-0.269
GGTGAGGA	0.0213
CTAAATAA	-0.202
AATCGCCC	-0.00431
AGGATCAT	-0.258
GCGGGGTA	0.323
AGCCCGGG	0.328

Sequence	PBM E-score
AATCCAGA	-0.0484
ATGCGGCG	0.244
GTCCTGAA	-0.153
AACTCGTG	-0.105
AAACTGTT	-0.0687
AACATTCT	-0.176
CTGGACAC	-0.191
CAGAAGAA	-0.127
TCGGACGA	0.271
ACTAAAAT	-0.0501
AGCAACTG	-0.0877
CTATTCCA	0.02
GGACCCAA	0.0838
GCTATTCA	-0.0562
TAACCGTA	-0.0936
ATCCAGGG	-0.202
AGTCCGGG	0.44
CGTCGCCA	-0.27
CTGCCTAC	-0.116
GCCAGCTA	-0.18
CGGGTGAA	0.159
GGCCGGAC	0.419
CCCGCGCG	0.326
GAGAGAAA	-0.0494
GACTTTGC	0.00324

Sequence	PBM E-score
AGTATCTC	0.114
AAAACATA	0.0523
GACGGATC	0.132
AATACGTG	-0.209
ATTGATTG	0.106
GCTTTAAC	-0.215
ATAAATTG	-0.00791
CCATTCCC	0.115
CGTGAACG	-0.0842
CTAGGATA	-0.15
ACGCTATG	-0.0961
CGTTCACC	0.0466
AAAACGTA	-0.157
GCGATCAC	0.0148
AAAAATAT	0.0546
GGCTCAAA	0.0317
CCAACCTC	0.0644
ACTCGCCC	0.0369
AAGAGCTA	-0.167
CTTGGCGA	-0.203
AGACCAAC	-0.159
CAAGGATG	-0.287
CATAGGCC	0.0769
CTACATAA	-0.0134
GTTGCAAC	0.0952

Sequence	PBM E-score
TATAACCA	-0.151
CTAAAGTC	-0.203
CCTGGAGC	-0.03
ACTATTAC	-0.0246
ACGGCCGG	0.33
TAAGCGAA	0.00013
AATCTTGC	-0.1
ACATTTGA	0.0639
ACACGTTC	-0.0701
TGACATCA	-0.171
GTCAGCAA	-0.18
ACCATCGA	-0.304
AGCCATTA	-0.116
AAGAAACC	0.0438
TAATTAGA	-0.0264
AATGCCGG	0.421
ATCAGCAA	-0.00911
AAAGACCC	-0.133
ATGCTTGA	-0.0305
ATGCGCGA	0.0964
TCGATCCA	-0.212
ACTGGAGA	-0.0936
ATCACAAG	-0.214
AGAGGACT	-0.232
AGGTTTAC	-0.164

Sequence	PBM E-score
ATCCGATA	0.399
GGGTATCA	-0.119
CACGACAA	-0.231
CTCCCCTC	0.0443
AAGTACAA	-0.11
CTCTTTTC	-0.0672
CTGAGAAA	-0.125
GACGTGTA	-0.0667
AACACGAA	0.0438
CTCCCGGA	0.398
AAGATGCG	0.055
GAAGGCTA	-0.21
CTATGAAC	-0.19
GCTGAAAA	-0.0238
AACACCAC	0.00024
AGTAGTCA	-0.202
CGGATCCA	0.221
GAGTGTCC	0.0987
AATAACCT	-0.239
AGGCATAC	-0.013
ACATTCAA	0.0683
AGCTTACC	-0.098
GAGGTGAC	-0.0284
CCATCATA	-0.102
CGGAATGC	0.361

Sequence	PBM E-score
ACGTCACG	-0.191
AATGGCCC	-0.0705
AAAGCAGT	-0.138
GAGACAAC	0.0353
ACTCAGAA	0.0406
AGGTTAAT	-0.0384
CTTATCTC	-0.0869
AACGAGGG	-0.229
CAGACCTG	-0.203
AAGGTGCG	0.0197
CCGGGACA	0.339
GCTGTACC	-0.00975
AGGATTAG	-0.245
ACTCTCTG	-0.163
ATTTGTTC	0.114
CGCACGCC	0.155
GGTCGTAA	-0.0868
GGCCCGAC	0.124
AACTCTTA	-0.119
GACATCGA	-0.126
CGCACCGC	0.123
ATCGAGGA	-0.162
ATGTATTA	-0.159
AAGCTACC	-0.102
TACTCGCA	-0.085

Sequence	PBM E-score
ACACTCAA	-0.0759
GTTACGGA	0.354
ACCTGCCC	-0.0559
AATGCCAA	-0.117
AACGGTCC	0.0516
AAACAAGC	0.0417
GCTATACC	-0.00728
AGCACCTG	-0.217
CGCTCACC	0.0135
GCGAGCCC	0.109
AATAGTCG	-0.0923
CGGTAACA	0.205
CCTAGATA	-0.328
GCCCGTGA	0.103
CTGTAGGA	-0.00233
AAGAGGCG	-0.143
AGAGCCAC	-0.191
AAGCACTT	-0.113
GCCTAGCC	0.0257
CGTGACCA	-0.0799
AGCTCATA	0.00205
ACACAACT	-0.0696
AGCATTGA	-0.293
TTCGTAAA	-0.164
AGGGAGCA	-0.163

Sequence	PBM E-score
AGTGCGCG	0.15
GTGATCAA	-0.156
CTAATGAG	-0.209
ATGTTACC	0.00456
CCGCACGA	0.0964
ATAGCACG	-0.0307
CCCATGAC	-0.106
AAGGTATT	0.0675
AAAACGTT	-0.0478
ACCGGATA	0.265
CAATAGTC	-0.201
GTGGACTA	0.0449
GGCAGGCA	-0.0704
CCTCAAGC	-0.0712
AAGCGGTG	-0.14
CAAATAAA	0.0228
GTGCGGGA	0.274
ACGCGCCT	-0.0629
ACGCGCAG	-0.177
GAAATCGC	0.214
AACTGTTC	0.109
CCCCCTAG	-0.34
AATCCAGC	0.0196
GATACCCC	0.112
ACTCATCT	-0.155

Sequence	PBM E-score
CAATTCGG	0.256
CTGGAGAA	-0.141
AGCCCCAA	-0.262
CCACACTA	0.0795
CCTATGTC	-0.112
CTGAATAC	-0.153
TCATGCAA	-0.0524
CAGAAAAG	-0.0399
AAATCTCC	0.246
AAGTCGAT	-0.119
CAGATAGG	-0.159
AGCGATAC	-0.242
AACTCACT	-0.397
CGGCTAGC	0.0612
TCCCCGCA	0.323
GGCCAAAC	0.106
AGTCTTGG	-0.14
CATTGGCA	-0.208
CACATCGA	-0.191
AAGAACAT	0.0106
CAAAGTTG	-0.232
AAGGGGAT	-0.0327
ATATTCGC	0.0699
GTCCGAGA	0.416
CGGGAGGC	0.064

Sequence	PBM E-score
ATTGGATC	0.0248
TGGTACAA	-0.355
ACTAATCC	0.0875
TATTATGA	-0.239
GCCTGCCC	-0.063
AACCGCGG	0.305
CTGAGTTA	-0.248
AAGCGCCT	0.0348
GAGGGCCC	0.0735
CACTTTGA	-0.207
CGAATTTA	0.0471
GCAATGTA	-0.0559
ACCCCTGC	-0.127
TAGGCATA	-0.212
GCATTGGC	-0.233
AGAGCGAT	-0.186
ATCTCAGG	-0.0988
AGCCAACA	-0.169
ACCAAAGC	0.0231
